The values that follow come from patent US7772236B2, “Substituted pyrazoles” (Ortho McNeil Pharmaceutical, Inc., priority 2000, dated 2010).

In the assay the target is Recombinant human cathepsin S (CatS) (Homo sapiens, UniProt P25774). Briefly: biochemical.

What is called IC50 is the concentration that gives 50% inhibition. Take `COC(=O)c1cccc(N)c1N1CCN(CC(O)Cn2nc(-c3ccc(C(F)(F)F)cc3)c3c2CCN(S(C)(=O)=O)C3)CC1` (stereo not shown) [Example 28, 3-Amino-2-(4-{2-hydroxy-3-[5-methanesulfonyl-3-(4-trifluoromethyl-phenyl)-4,5,6,7-tetrahydro-pyrazolo[4,3-c]pyridin-1-yl]-propyl}-piperazin-1-yl)-benzoic acid methyl ester]: the IC50 was 70 nM.

With `CS(=O)(=O)N1CCc2c(c(-c3ccc(C(F)(F)F)cc3)nn2CCCN2CCN(c3c(N)cccc3Cl)CC2)C1` [Example 29, 3-Chloro-2-(4-{3-[5-methanesulfonyl-3-(4-trifluoromethyl-phenyl)-4,5,6,7-tetrahydro-pyrazolo[4,3-c]pyridin-1-yl]-propyl}-piperazin-1-yl)-phenylamine], the IC50 was 70 nM.

Consider `CNC(=O)Nc1cccc(Cl)c1N1CCN(CC(O)Cn2nc(-c3ccc(Br)cc3)c3c2CCN(S(C)(=O)=O)C3)CC1` (stereo not shown) [Example 30, 1-[2-(4-{3-[3-(4-Bromo-phenyl)-5-methanesulfonyl-4,5,6,7-tetrahydro-pyrazolo[4,3-c]pyridin-1-yl]-2-hydroxy-propyl}-piperazin-1-yl)-3-chloro-phenyl]-3-methyl-urea], for which the half-inhibitory concentration (IC50) stood at 80 nM.

As for `CS(=O)(=O)Nc1cccc(Cl)c1N1CCN(CCCn2nc(-c3ccc(C(F)(F)F)cc3)c3c2CCN(C(N)=O)C3)CC1` [Example 31, 1-{3-[4-(2-Chloro-6-methanesulfonylamino-phenyl)-piperazin-1-yl]-propyl}-3-(4-trifluoromethyl-phenyl)-1,4,6,7-tetrahydro-pyrazolo[4,3-c]pyridine-5-carboxylic acid amide], the IC50 turned out to be 100 nM.

As to `COC(=O)Nc1cccc(Cl)c1N1CCN(CCCn2nc(-c3ccc(C(F)(F)F)cc3)c3c2CCN(S(C)(=O)=O)C3)CC1` [Example 32, [3-Chloro-2-(4-{3-[5-methanesulfonyl-3-(4-trifluoromethyl-phenyl)-4,5,6,7-tetrahydro-pyrazolo[4,3-c]pyridin-1-yl]-propyl}-piperazin-1-yl)-phenyl]-carbamic acid methyl ester], the IC50 turned out to be 100 nM.

For the molecule `NC(=O)N1CCc2c(c(-c3ccc(Br)cc3)nn2CCCN2CCN(c3nsc4ccccc34)CC2)C1` [Example 33, 1-[3-(4-Benzo[d]isothiazol-3-yl-piperazin-1-yl)-propyl]-3-(4-bromo-phenyl)-1,4,6,7-tetrahydro-pyrazolo[4,3-c]pyridine-5-carboxylic acid amide], the IC50 came to 100 nM.

Consider `COC(=O)c1cccc([N+](=O)[O-])c1N1CCN(CC(O)Cn2nc(-c3ccc(C(F)(F)F)cc3)c3c2CCN(C(C)=O)C3)CC1` (stereo not shown) [Example 34, 2-(4-{3-[5-Acetyl-3-(4-trifluoromethyl-phenyl)-4,5,6,7-tetrahydro-pyrazolo[4,3-c]pyridin-1-yl]-2-hydroxy-propyl}-piperazin-1-yl)-3-nitro-benzoic acid methyl ester], for which the IC50 turned out to be 110 nM.

Take `CS(=O)(=O)N1CCc2c(c(-c3ccc(C(F)(F)F)cc3)nn2CC(O)CN2CCN(c3c(Cl)cccc3[N+](=O)[O-])CC2)C1` (stereo not shown) [Example 35, 1-[4-(2-Chloro-6-nitro-phenyl)-piperazin-1-yl]-3-[5-methanesulfonyl-3-(4-trifluoromethyl-phenyl)-4,5,6,7-tetrahydro-pyrazolo[4,3-c]pyridin-1-yl]-propan-2-ol]: the half-inhibitory concentration (IC50) is 120 nM.

Regarding `CS(=O)(=O)N1CCc2c(c(-c3ccc(I)cc3)nn2CC(O)CN2CCN(c3ccccc3C#N)CC2)C1` (stereo not shown) [Example 36, 2-(4-{2-Hydroxy-3-[3-(4-iodo-phenyl)-5-methanesulfonyl-4,5,6,7-tetrahydro-pyrazolo[4,3-c]pyridin-1-yl]-propyl}-piperazin-1-yl)-benzonitrile], the IC50 worked out at 120 nM.

In the case of `NC(=O)N1CCc2c(c(-c3ccc(Br)cc3)nn2CCCN2CCN(c3ccccc3[N+](=O)[O-])CC2)C1` [Example 37, 3-(4-Bromo-phenyl)-1-{3-[4-(2-nitro-phenyl)-piperazin-1-yl]-propyl}-1,4,6,7-tetrahydro-pyrazolo[4,3-c]pyridine-5-carboxylic acid amide], the IC50 worked out at 120 nM.
